{"source": "the supplement of paper PMC11417369", "note": "± gives the standard deviation of the averaged measurements. The list shows a part of the results.", "data": [{"tested_on": "PfAP2-G AP2 domain (GST-tagged)", "assay": "gcPBM binding intensity (ln(normalized median fluorescence intensity)); higher = stronger DNA binding", "how_it_was_run": "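In this array assay, P. falciparum DNA-binding domains with a GST tag, expressed in E. coli, were applied for 1 h to primer-extended double-stranded 36-bp intergenic genomic probes and negative controls on an Agilent 4 × 180k array. Bound protein was visualised with Alexa488 anti-GST antibody at 488 nm. Binding intensity is the highest Masliner-normalised natural-log median intensity across replicate spots of either probe orientation.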", "values": [{"sequence": "TCATATTATAATGTGAGTACATATAATAAATAAGTT [XGTACX_site2470]", "gcPBM binding intensity (ln)": "11.3 ± 0.95"}, {"sequence": "ATGTTTGTCTATAGCTGTACCTATTTATAAAACGTA [XGTACX_site7157]", "gcPBM binding intensity (ln)": "11.2 ± 0.85"}, {"sequence": "TTAAATAATATTAAATGTACATATTATTATGATATA [XGTACX_site6189]", "gcPBM binding intensity (ln)": "11.1 ± 0.64"}, {"sequence": "TATATATTTAACAATCGTACATATTTACAAATATAA [XGTACX_site2131]", "gcPBM binding intensity (ln)": "11 ± 0.76"}, {"sequence": "TTATAACAACTGGAATGATTAACAATAAATATTAAA [CACACA_negctrl_site1723]", "gcPBM binding intensity (ln)": "9.87 ± 0.13"}, {"sequence": "GTATATATGTATATATGTACATATATACATTTTGTT [XGTACX_site7320]", "gcPBM binding intensity (ln)": "11.2 ± 0.64"}, {"sequence": "CGTTAAAGGGAATGTATACACACGTTTCTCTATGTT [CACACA_site1198]", "gcPBM binding intensity (ln)": "10.2 ± 0.16"}, {"sequence": "TATTTTTTTTTCTTTTTATATATAATAATCTTCATT [GTGCAC_negctrl_site80]", "gcPBM binding intensity (ln)": "9.73 ± 0.16"}, {"sequence": "AGGAGACTTAAAAAAAGTACAAAAAAAAAAAAAAGC [XGTACX_site1576]", "gcPBM binding intensity (ln)": "11.4 ± 0.93"}, {"sequence": "ACAGAAAAAAAACACACACACATAATATACATACAT [CACACA_site1932]", "gcPBM binding intensity (ln)": 10}, {"sequence": "TATACATATATAAATGCATGTTGATATTAATAGTTA [TGCATGCA_site639]", "gcPBM binding intensity (ln)": "9.615 ± 0.049"}, {"sequence": "AATTTCATAAATATAACTGAGAATAAATAAACAAAG [GTGCAC_negctrl_site146]", "gcPBM binding intensity (ln)": "9.935 ± 0.078"}, {"sequence": "AAAAATAAAATAAAGAAGGAAAATAAAAAAATAAGG [CACACA_negctrl_site1811]", "gcPBM binding intensity (ln)": "10.01 ± 0.035"}, {"sequence": "AGGAGGTCAGTTCACAGTACCCAGGAAATCTACGGA [XGTACX_site2552]", "gcPBM binding intensity (ln)": "11.1 ± 0.8"}, {"sequence": "AAACATAAGAGACACACACACATATATAAATAAATA [CACACA_site7674]", "gcPBM binding intensity (ln)": "10.1 ± 0.28"}, {"sequence": "CCTGTAAATAAATATAAATACATATTTCTAATATAT [GTGCAC_negctrl_site21]", "gcPBM binding intensity (ln)": "9.53 ± 0.32"}, {"sequence": "ACCTCATAATATTTAACACACAAAATTAAATGTATG [CACACA_site6898]", "gcPBM binding intensity (ln)": "10.09 ± 0.028"}, {"sequence": "TTTCAAAAAAATAATGTGCACATTAGAAAATAAATA [GTGCAC_site9416]", "gcPBM binding intensity (ln)": "10.3 ± 0.33"}, {"sequence": "TTATGTTGTAAATGCACACATACATAAACTCAGTTT [CACACA_site5639]", "gcPBM binding intensity (ln)": "10.1 ± 0.13"}, {"sequence": "TAAATATTTTTAGATGCATGCAATAATTACCCAAAG [TGCATGCA_site636]", "gcPBM binding intensity (ln)": "10.2 ± 0.3"}, {"sequence": "TTATTATTATTACTAGTGCATTAATTATATATGTAA", "gcPBM binding intensity (ln)": "9.965 ± 0.064"}, {"sequence": "TTTTTTTTTTCTGAAAGTACTAATTTCCTGGAGGAA [XGTACX_site759]", "gcPBM binding intensity (ln)": "10.9 ± 0.83"}, {"sequence": "ACATATATTTAAAAATGTACTTACATATATTTTTTA [XGTACX_site6050]", "gcPBM binding intensity (ln)": "11 ± 0.69"}, {"sequence": "TTTTATACATATTTTACACACTAAAATATACATATA [CACACA_site324]", "gcPBM binding intensity (ln)": "10.09 ± 0.057"}, {"sequence": "GAAGTATTTATTTATGCATGCAAATATACAAAAAAA [TGCATGCA_site975]", "gcPBM binding intensity (ln)": "10 ± 0.23"}, {"sequence": "ATATGTAGAAGTAATGCACACATATGTATATATATA [CACACA_site8796]", "gcPBM binding intensity (ln)": "9.935 ± 0.007"}, {"sequence": "TTAAAATATAATATTCGTACTTATTCAAAAGAAAAA [XGTACX_site2122]", "gcPBM binding intensity (ln)": "10.8 ± 0.75"}, {"sequence": "TTTCACTTTTTCCAAAGTACATATATAAAAATTAAT [XGTACX_site6947]", "gcPBM binding intensity (ln)": "10.9 ± 0.78"}, {"sequence": "TTTTAATAAATATACACACACAAAAAAAAAAAAAAA [CACACA_site3971]", "gcPBM binding intensity (ln)": "9.93 ± 0.51"}, {"sequence": "AGATTATAAAATTCTACACACATATATACATATATA [CACACA_site3485]", "gcPBM binding intensity (ln)": "9.835 ± 0.078"}, {"sequence": "GACCAATTCAAATATGCACACAAATTTGAAAACGAT [CACACA_site9202]", "gcPBM binding intensity (ln)": "10.3 ± 0.23"}, {"sequence": "ATATAAAAAAAAAAAAGTACACATAAACAAATGCAT [XGTACX_site4241]", "gcPBM binding intensity (ln)": "11.7 ± 1"}, {"sequence": "AATATATAGAAACACACACACAAAAAAAAAAAAAAA [CACACA_site1326]", "gcPBM binding intensity (ln)": "9.95 ± 0.44"}, {"sequence": "AATAAAAAGACATTCACACATATATATTATTTATAT [CACACA_site5936]", "gcPBM binding intensity (ln)": "9.7 ± 0.29"}, {"sequence": "AATTAATAACAAAATAAACACACATATATAAATACA [CACACA_site8456]", "gcPBM binding intensity (ln)": "9.97 ± 0.057"}, {"sequence": "ATAATGTAAAAGTAAACACACACATATATATATACA [CACACA_site8793]", "gcPBM binding intensity (ln)": "9.93 ± 0.071"}, {"sequence": "GTCTTAAAAATTAAAACACACGTTCACTTTCATATT [CACACA_site5803]", "gcPBM binding intensity (ln)": "10.05 ± 0.021"}, {"sequence": "TATATATATATATAATGTACATATATATAATATACA [XGTACX_site1552]", "gcPBM binding intensity (ln)": "10.9 ± 0.6"}, {"sequence": "ATTTCTACTAAAAATACACACGATGATACAACGAAG [CACACA_site1755]", "gcPBM binding intensity (ln)": "10.18 ± 0.099"}, {"sequence": "AAAGAATTTGCATATACACACAAAAAGATATATACA [CACACA_site6318]", "gcPBM binding intensity (ln)": "10.1 ± 0.14"}, {"sequence": "CTAATGATCATATATACACACACACTAATAAAAAAA [CACACA_site9329]", "gcPBM binding intensity (ln)": "10.1 ± 0.16"}, {"sequence": "TATATTTAGATATATACACACATTAGCATTTTCATA [CACACA_site6902]", "gcPBM binding intensity (ln)": "9.68 ± 0.18"}, {"sequence": "CATAATACAGATAACACACACAATTATACATAAAAT [CACACA_site5742]", "gcPBM binding intensity (ln)": "10.04 ± 0.085"}, {"sequence": "GTATATATTTTTATTTAATAATTTGTTTATTTATTC [CACACA_negctrl_site647]", "gcPBM binding intensity (ln)": "9.75 ± 0.042"}, {"sequence": "CATACATATACATACAGTACATATTTTTTGTCAATT [XGTACX_site7357]", "gcPBM binding intensity (ln)": "10.9 ± 0.42"}, {"sequence": "TTATATGGCTCCATTTGTACGCATCCATGTTTTTAT [XGTACX_site6590]", "gcPBM binding intensity (ln)": "11.5 ± 1"}, {"sequence": "AGGAGGTCAGTTCACAGTACCCAGAAACTCTACGAG [XGTACX_site2006]", "gcPBM binding intensity (ln)": "11.1 ± 0.73"}, {"sequence": "TCTTTTTTTTCTTTTTTTTTATTTAAATATCAAGTA [CACACA_negctrl_site1354]", "gcPBM binding intensity (ln)": "9.66 ± 0.23"}, {"sequence": "AAAAAAAAAAAAAAAGCACACATCATATTATAATTC [CACACA_site3355]", "gcPBM binding intensity (ln)": "10.2 ± 0.18"}, {"sequence": "AAAAAAACATAACAAAATGAAACAAAACAAAAAGAA [GTGCAC_negctrl_site577]", "gcPBM binding intensity (ln)": "9.88 ± 0.014"}, {"sequence": "AGTTATTAAAAATGTGCATGCAATGGTTTCTCTTAA [TGCATGCA_site634]", "gcPBM binding intensity (ln)": "9.965 ± 0.092"}, {"sequence": "GTATGTATATATATATGTACATACTGTTTATCGTTA [XGTACX_site6168]", "gcPBM binding intensity (ln)": "11.1 ± 0.47"}, {"sequence": "ATATATTTCAAAGGGGTGCAGGCATATTTAAGCAAA", "gcPBM binding intensity (ln)": "10.3 ± 0.4"}, {"sequence": "TCTTTTTAATTTATATGTACTTATATTAATTATAAG [XGTACX_site7524]", "gcPBM binding intensity (ln)": "11.4 ± 0.97"}, {"sequence": "TTTCTTAAAATGTTATGTACATATTTCGTTTCAAAG [XGTACX_site6102]", "gcPBM binding intensity (ln)": "11.3 ± 0.84"}, {"sequence": "GTATTATAGTATAATACACACCCAAATATTAAAAAG [CACACA_site7404]", "gcPBM binding intensity (ln)": "10.315 ± 0.007"}, {"sequence": "TGAGCTTCAACAATATGTACATAAAATATATTACAT [XGTACX_site4763]", "gcPBM binding intensity (ln)": "11.2 ± 0.54"}]}]}
